Measurements published in publication PMC2645234.
No constants are given. Whether binding was seen depends on the method and setting. In cells and extracts the contact can be indirect. Some binding calls cover weakened binding; strength is not graded here. Where a sequence is shown, tags or fusion partners need not be part of it.

By UniProt entry, the sequences of proteins in these tests, tags left out. Where a name states a change or a piece, a line headed by the entry shows the natural chain unless it says otherwise.
UniProt P62330: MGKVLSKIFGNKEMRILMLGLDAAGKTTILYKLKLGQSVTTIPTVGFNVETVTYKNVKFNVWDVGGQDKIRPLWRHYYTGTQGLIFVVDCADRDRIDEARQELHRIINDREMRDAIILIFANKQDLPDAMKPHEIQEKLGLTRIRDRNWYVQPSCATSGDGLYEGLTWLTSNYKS

B1: GFP-AR149 (N-terminal fragment of A-RAF, residues 1-149) (domain or fragment, UniProt P10398 1-149)
chain: MEPPRGPPANGAEPSRAVGTVKVYLPNKQRTVVTVRDGMSVYDSLDKALKVRGLNQDCCVVYRLIKGRKTVTAWDTAIAPLDGEELIVEVLEDVPLTMHNFVRKTFFSLAFCDFCLKFLFHGFRCQTCGYKFHQHCSSKVPTVCVDMST

What was measured:
GST-GGA3 = target: T1, GST-GGA3 (UniProt Q9NZ52); experiment: pull-down; 25 µg GST-GGA3 immobilized on glutathione-Sepharose, incubated 2 h at 4°C with clarified lysates of COS7 cells transfected with HA-ARF6 (wt, Q67L, T27N) plus indicated plasmids; in some panels starved and then EGF 100 ng/ml for 10 min, EFA6 co-expression or A-RAF siRNA; washed with PBS; immunoblot; only the target purified
T1 sequence: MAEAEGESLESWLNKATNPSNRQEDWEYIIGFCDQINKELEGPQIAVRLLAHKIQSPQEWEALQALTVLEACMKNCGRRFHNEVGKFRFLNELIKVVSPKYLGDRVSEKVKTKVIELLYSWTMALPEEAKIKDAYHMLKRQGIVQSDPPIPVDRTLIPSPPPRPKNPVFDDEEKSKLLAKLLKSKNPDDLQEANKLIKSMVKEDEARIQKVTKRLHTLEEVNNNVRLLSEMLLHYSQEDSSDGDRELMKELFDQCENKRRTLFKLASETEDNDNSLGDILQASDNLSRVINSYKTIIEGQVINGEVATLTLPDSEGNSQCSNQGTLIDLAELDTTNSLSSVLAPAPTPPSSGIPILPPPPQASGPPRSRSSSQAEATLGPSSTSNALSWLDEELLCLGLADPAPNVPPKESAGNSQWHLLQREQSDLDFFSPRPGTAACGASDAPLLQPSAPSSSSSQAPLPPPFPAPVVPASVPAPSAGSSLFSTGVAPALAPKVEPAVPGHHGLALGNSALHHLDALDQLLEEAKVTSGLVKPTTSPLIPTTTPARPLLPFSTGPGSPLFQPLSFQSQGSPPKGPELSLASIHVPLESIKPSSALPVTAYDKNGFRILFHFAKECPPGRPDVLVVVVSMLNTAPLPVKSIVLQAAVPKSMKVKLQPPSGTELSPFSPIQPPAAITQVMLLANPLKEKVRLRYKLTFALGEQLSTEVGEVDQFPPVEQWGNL

[1] = target: T2, GFP-AR149 (N-terminal fragment of A-RAF, residues 1-149) (human) (UniProt P10398); experiment: co-IP; COS7 cells co-transfected with GFP-AR149 and HA-ARF6 (wt, Q67L or T27N); lysis buffer 50 mM Tris-HCl pH 7.0, 2 mM MgCl2, 100 mM NaCl, 10% glycerol, 0.75% NP-40; precipitated with anti-GFP, 2 h at 4°C, blotted with anti-HA
T2 sequence: B1 chain

HA-ARF6 wild type [2] = target: HA-ARF6 wild type (UniProt P62330); experiment: pull-down; GST-GGA3 beads pull down HA-ARF6 from lysates of COS7 cells co-expressing GFP-AR149 (EGF treated); AR149 detected in the pulled-down ARF6 complex by immunoblot
HA-ARF6 wild type [3] = target: HA-ARF6 wild type (UniProt P62330); experiment: co-IP; same lysates as a1, reverse order: precipitated with anti-HA, 2 h at 4°C, blotted with anti-GFP
[4] = target: HA-ARF6(Q67L), GTP-locked (UniProt P62330); experiment: as above
[5] = target: HA-ARF6(T27N), GDP-locked (UniProt P62330); experiment: as above

| Molecule | binding (GST-GGA3) | binding [1] | binding (HA-ARF6 wild type [2]) | binding (HA-ARF6 wild type [3]) | binding [4] | binding [5] |
| --- | --- | --- | --- | --- | --- | --- |
| HA-ARF6 wild type (from UniProt P62330 1-175) | binds | binds |  |  |  |  |
| HA-ARF6(Q67L), GTP-locked (from UniProt P62330 1-175) | binds | binds |  |  |  |  |
| HA-ARF6(T27N), GDP-locked (from UniProt P62330 1-175) | no binding | binds |  |  |  |  |
| B1 |  |  | binds | binds | binds | binds |
